Measurements from patent US5770563A, “Heparin- and sulfatide binding peptides from the type I repeats of human thrombospondin and conjugates thereof” (The United States of America as represented by the …, priority 1995, dated 1998).
“Also recorded” adds a separate entry of the source. Where two headings read alike, the source gives them in different places. Not every detail of the peptide structures is certain; ends, links or a residue may be inferred. Square brackets hold non-standard residues; d marks the D form. Peptide text beside a SMILES is read from it. Ava = NCCCCC(=O)O; Mpa = O=C(O)CCS

Key:
[1] = test system: bovine corneal endothelial cells; format: cell-based
Method: Corneal bovine endothelial cells (BCE cells) were used at passages 2 through 8 (Munjal et al., 1990). BCE cell cultures were maintained in DMEM (low glucose), containing 10% FCS, 4 mM glutamine, 2.5 μg/ml amphotericin B, and 500 U/ml each of penicillin G potassium and streptomycin sulfate (all media components were from Biofluids Inc., Rockville, Md.). BCE cells were grown at 34° in 5% CO2. The media were changed every 2-3 days.
(§1) Endothelial cell proliferation was measured using the CELL TITER 96™ assay (Promega, Madison, Wis.). 5×10^3 cells were plated into each well of a 96-well culture plate in 0.5 or 5% FCS-containing medium together with the indicated concentrations of growth effectors. After 72 h, 15 μl of dye solution was added to each well, and the plates were incubated for an additional 4 h. Solubilization solution was added, and absorbance at 570 nm was determined after 24 h as described by the manufacturer.

[2] = test system: thrombospondin binding to heparin; assay: Inhibition of 125I-thrombospondin binding to immobilized heparin-BSA; set-up: species or system human
Method: (§2) The peptides were tested as inhibitors of laminin, thrombospondin or apolipoprotein E binding to a heparin-bovine serum albumen conjugate or to a sulfatide in a solid phase assay essentially following the procedure described in Zabrenetzky et al., Cancer Res., Vol. 50, pages 5937-5942 (1990). Sulfatide (0.2 μg/well for thrombospondin binding, 0.6 μg/well for laminin binding) was immobilized in a mixture of 50 ng of phosphatidyl choline, and 30 ng of cholesterol on polyvinyl chloride microtiter plates. Heparin-BSA (0.2 μg/well) was absorbed onto polyvinyl chloride microtiter plate wells by incubation of 50 μl of Dulbecco's PBS for 2 h at 37°. The wells were emptied and filled with 50 mM tris, pH 7.8 containing 150 mM NaCl, 1 mM CaCl2, 0.025% NaN3, and 1% BSA. After 30 minutes, the wells were emptied and 30 μl of various concentrations of potential inhibitory peptides diluted in the same buffer or buffer alone and 30 μl of ^125 I-labeled laminin, thrombospondin or apolipoprotein E (0.2 μg/ml) were added to each well. After 3 hours at 4°, the wells were washed 6 times with 0.15M NaCl, cut from the plate and the bound radioactivity counted. FIGS. 1A-B and 2A-B show the level of thrombospondin binding to sulfatide and heparin-BSA, respectively, in the presence of increasing concetrations of the peptides listed. FIGS. 3 and 4A-B show the level of laminin binding to sulfatide and heparin-BSA, respectively, in the presence of increasing concentrations of the listed peptides.
Microtiter plate wells were coated with heparin-BSA. Heparin-BSA (0.2 μg/well) was adsorbed by incubation in 50 μl of Dulbecco's PBS for 2 h at 370. The wells were emptied, filled with tris-BSA, and incubated for 30 to 60 minutes. The buffer was removed, and labelled thrombospondin was added and incubated in the wells for 3 h at 40. The wells were emptied and washed 4 times with saline. The bottoms of the wells were cut from the plate and counted to quantify thrombospondin binding. Inhibition of thrombospondin binding was determined using peptides diluted in 30 μl of 50 mM tris buffer, pH 7.8, containing 110 mM NaCl, 1 mM CaCl2, 0.025% NaN3, and 1% BSA or buffer alone and 30 μl of ^125 I-labeled TSP (0.2 μg/ml).

[3] = test system: MDA MB435 breast carcinoma cells; assay: MDA MB435 human breast carcinoma cell proliferation; format: cell-based; settings: for inhibition of MDA435 proliferation, in words: FICOLL conjugate
Method: Human breast carcinoma cells MDA MB435 (American Type Culture Collection) were grown in RPMI 1640 medium containing 10% fetal calf serum. Proliferation was determined as described in FIG. 18 and 44A, B and C.
Human breast carcinoma cells MDA MB435 (American Type Culture Collection) were grown in RPMI 1640 medium containing 10% fetal calf serum. Proliferation was determined in the presence of 0.5% fetal calf serum and bFGF as described in FIG. 19.

[4] = test system: bovine aortic endothelial cells; assay: Proliferation of bovine aortic endothelial cells; format: cell-based; settings: FICOLL conjugate
Method: as §1
FICOLL conjugates of peptide 353 (SEQ ID NO:28) (GGWSHWSPWSSC), 354 (SEQ ID NO:29) (CGGWSHWSPWSS), 224 364 g (SEQ ID NO:30) and 387 (SEQ ID NO:30) (three syntheses of KRFKQDGGWSHWSPWSSC), or free FICOLL were tested at the indicated concentrations as inhibitors of proliferation of bovine aortic endothelial cells in DMEM medium containing 0.5% (FIG. 24A) or 5% (FIG. 24B) fetal calf serum. […] Therefore, the conjugates are general inhibitors of both large and small vessel endothelial cell proliferation. […] This contrasts with existing inhibitors of endothelial cell proliferation,which are fully active only at low serum concentrations. […] Also tested for the ability to inhibit proliferation of bovine aortic endothelial cells were peptide conjugates 416f1, f2 and f3 (three preparations of the retro-inverso peptide Ac-allD-CSSWPSWHSWGGDQKFRK-NH2 coupled to FICOLL) 407 (SEQ ID NO:30) (an independent synthesis of peptide KRFKQDGGWSHWSPWSSC conjugated to FICOLL) 419 (SEQ ID NO:34) (KRFKAAGGWSHWSPWSSC coupled to FICOLL, where the Q and D of the native sequence were replaced with Ala residues) 392 (KRFKQAGGWSHWSPWSSC (SEQ ID NO:32) where the D is replaced with an Ala residue). […] In all cases, bFGF-stimulated proliferation was inhibited by the active conjugates.
Proliferation of bovine aortic endothelial cells was also determined for cells grown in the presence of the indicated concentrations of peptide 246 (KRFKQDGGWSHWSPWSS) (SEQ ID NO:19) or peptide 416 (retro-inverso) in RPMI-HITES (reg medium) or corresponding conditioned medium from MDA 435 breast carcinoma cells. […]

[5] = target: basic fibroblast growth factor (FGF-2) binding to heparin; assay: Inhibition of 125I-bFGF binding to heparin-BSA conjugate; settings: retro-inverso peptides; read-out: IC50 for Inhibition of Binding
Method: Binding of ^125 I-bFGF to heparin was determined using an immobilized heparin-BSA conjugate as previously described (Guo, et al. (1992) Proc. Nat'l Acad. Sci. 89:3040-3044). ^125 I-bFGF, prepared as described by Neufeld, et al, (1985), J. Biol. Chem. 260:13860-13868, was added described above, and incubated for 2 hours at 25° C. Bound radioactivity was determined after washing and cutting the wells from the plate. FIGS. 40A, B and C show the inhibition of ^125 I-bFGF binding to heparin by a number of TSP peptide analogs.

bovine endothelial cells = assay: Inhibition of bovine endothelial cell proliferation (Table 7); format: cell-based; settings: free peptide; read-out: IC50 Inhibitory Activity, Free Peptide
Method: Similar structure-function and epitope mapping studies were carried out with regard to inhibition of bovine endothelial cell proliferation. […] This may be due either to a lower tendency of the conjugates to stick to the microtiter wells or a greater tendency to disrupt binding of the cells to the substratum in the wells.
as §1

[6] = target: thrombospondin binding to sulfatide; assay: Inhibition of 125I-thrombospondin binding to sulfatide; set-up: species or system human; settings: Table 1, free peptide
Method: as §2

[7] = target: laminin binding to heparin; assay: Inhibition of 125I-laminin binding to heparin-BSA; set-up: species or system mouse; settings: Table 2, free peptide
Method: as §2

[8] = target: laminin binding to sulfatide; assay: Inhibition of 125I-laminin binding to sulfatide; set-up: species or system mouse; settings: Table 2, free peptide
Method: as §2

[9] = FICOLL conjugate, listed as GGWSHWSPWSSC
[10] = Table 1, free peptide, read-out: IC50 Heparin Binding, inhibition of 125I-thrombospondin binding

**Q.** CC[C@H](C)[C@H](NC(=O)[C@H](Cc1ccccc1)NC(=O)CNC(=O)[C@@H](NC(=O)[C@H](CCCCN)NC(=O)[C@@H]1CCCN1C(=O)[C@H](CCCNC(=N)N)NC(=O)[C@H](Cc1c[nH]cn1)NC(=O)[C@H](CO)NC(=O)[C@H](CC(C)C)NC(=O)[C@H](CCCNC(=N)N)NC(=O)[C@H](Cc1c[nH]c2ccccc12)NC(=O)[C@H](CCCNC(=N)N)NC(=O)[C@H](Cc1ccc(O)cc1)NC(=O)[C@H](C)NC(=O)[C@@H](N)[C@@H](C)O)[C@@H](C)O)C(=O)N[C@@H](CCCNC(=N)N)C(=O)N[C@H](C(=O)O)C(C)C [Peptide 297, TAYRWRLSHRPKTGFIRV, reference compound] (H-TAYRWRLSHRPKTGFIRV-OH) was tested. Which “inhibition of corneal endothelial cell proliferation, in words” value ([1]; free peptide) did it give?
**A.** not active

**Q.** What does the source list for NCC(=O)NCC(=O)N[C@@H](Cc1c[nH]c2ccccc12)C(=O)N[C@@H](CO)C(=O)N[C@@H](Cc1c[nH]cn1)C(=O)N[C@@H](Cc1c[nH]c2ccccc12)C(=O)N[C@@H](CO)C(=O)N1CCC[C@H]1C(=O)N[C@@H](Cc1c[nH]c2ccccc12)C(=O)N[C@@H](CO)C(=O)N[C@@H](CO)C(=O)N[C@@H](CS)C(=O)O [Peptide 353, GGWSHWSPWSSC] (H-GGWSHWSPWSSC-OH)?
**A.** inhibition of thrombospondin binding to heparin, in words ([2]; FICOLL conjugate): less active than the conjugate of peptide 364; inhibition of thrombospondin binding to heparin, in words [2, 9]: bound to heparin; inhibition of corneal endothelial cell proliferation, in words ([1]; FICOLL conjugate): strongly active; inhibition of corneal endothelial cell proliferation, in words [1, 9]: inhibited endothelial cell proliferation; inhibition of MDA435 proliferation, in words [3]: active

**Q.** N[C@@H](CS)C(=O)NCC(=O)NCC(=O)N[C@@H](Cc1c[nH]c2ccccc12)C(=O)N[C@@H](CO)C(=O)N[C@@H](Cc1c[nH]cn1)C(=O)N[C@@H](Cc1c[nH]c2ccccc12)C(=O)N[C@@H](CO)C(=O)N1CCC[C@H]1C(=O)N[C@@H](Cc1c[nH]c2ccccc12)C(=O)N[C@@H](CO)C(=O)N[C@@H](CO)C(=O)O [Peptide 354, CGGWSHWSPWSS] (H-CGGWSHWSPWSS-OH) was tested. Which “inhibition of corneal endothelial cell proliferation, in words” value ([1]; FICOLL conjugate) did it give?
**A.** inactive

**Q.** And the “inhibition of MDA435 proliferation, in words” value [3]?
**A.** not when coupled through an amino-terminal Cys residue

**Q.** What does the source list for C[C@H](NC(=O)[C@H](CCC(N)=O)NC(=O)[C@H](CCCCN)NC(=O)[C@H](Cc1ccccc1)NC(=O)[C@H](CCCNC(=N)N)NC(=O)[C@@H](N)CCCCN)C(=O)NCC(=O)NCC(=O)N[C@@H](Cc1c[nH]c2ccccc12)C(=O)N[C@@H](CO)C(=O)N[C@@H](Cc1c[nH]cn1)C(=O)N[C@@H](Cc1c[nH]c2ccccc12)C(=O)N[C@@H](CO)C(=O)N1CCC[C@H]1C(=O)N[C@@H](Cc1c[nH]c2ccccc12)C(=O)N[C@@H](CO)C(=O)N[C@@H](CO)C(=O)N[C@@H](CS)C(=O)O [Peptide 392, KRFKQAGGWSHWSPWSSC] (H-KRFKQAGGWSHWSPWSSC-OH)?
**A.** inhibition of thrombospondin binding to heparin, in words ([2]; FICOLL conjugate): no loss of activity; IC50 ([2]; L-forward peptides, free, read-out: IC50 Inhibitory Activity, Free Peptide): 0.3 µM; inhibition of aortic endothelial cell proliferation, in words [4]: identical activity to the native sequence; also recorded: do not alter the antiproliferative activities

**Q.** How did the “inhibition of thrombospondin binding to heparin, in words” value ([2]; free peptide) turn out when C[C@@H](NC(=O)CCS)C(=O)N[C@H](C)C(=O)N[C@H](Cc1c[nH]c2ccccc12)C(=O)N[C@H](Cc1c[nH]cn1)C(=O)N[C@H](CO)C(=O)N[C@H](Cc1c[nH]c2ccccc12)C(=O)NCCCCC(=O)N[C@H](C)C(=O)N[C@H](CCC(N)=O)C(=O)N[C@H](CCCCN)C(=O)N[C@H](C)C(=O)N[C@H](CCCNC(=N)N)C(=O)N[C@H](CCCCN)C(N)=O [Peptide 486, ri-amKRAKQAUWSHWAAtp] ([Mpa][dA][dA][dW][dH][dS][dW][Ava][dA][dQ][dK][dA][dR][dK]-NH2) was run?
**A.** full inhibitory activity

**Q.** And the IC50 [5]?
**A.** 0.45 µM

**Q.** And the IC50 (bovine endothelial cells)?
**A.** 1.6 µM

**Q.** What about the “fold increase of potency of inhibition by conjugation to polysucrose” value ([3]; conjugate versus free peptide) of the same molecule?
**A.** approximately 10 fold

**Q.** What about the “inhibition of MDA MB435 proliferation, in words” value ([3]; free peptide) of the same molecule?
**A.** active

**Q.** Which results are given for CSCC[C@H](NC(=O)[C@H](CCC(N)=O)NC(=O)[C@@H](N)CCCNC(=N)N)C(=O)N[C@@H](CCCCN)C(=O)N[C@@H](CCCCN)C(=O)N[C@H](C(=O)N[C@@H](CCCNC(=N)N)C(=O)O)[C@@H](C)O [Peptide P1, RQMKKTR] (H-RQMKKTR-OH)?
**A.** IC50 [2, 10]: > 200 µM; IC50 [6]: > 2 µM; IC50 [7]: > 200 µM; IC50 [8]: > 200 µM

**Q.** Which IC50 [2, 10] does the source give for CC(C)C[C@H](NC(=O)[C@H](CCCNC(=N)N)NC(=O)[C@H](CCCNC(=N)N)NC(=O)CNC(=O)[C@H](CO)NC(=O)CNC(=O)[C@H](CCCCN)NC(=O)[C@@H](N)CCCNC(=N)N)C(=O)N[C@H](C(=O)N[C@@H](CCCCN)C(=O)O)C(C)C [Peptide P2, RKGSGRRLVK] (H-RKGSGRRLVK-OH) here?
**A.** 60 µM

**Q.** What about the IC50 [6] of the same molecule?
**A.** > 2 µM

**Q.** What about the IC50 [7] of the same molecule?
**A.** 60 µM

**Q.** What about the IC50 [8] of the same molecule?
**A.** > 200 µM
